# Laboratory results published in publication PMC4336329 (PLoS ONE, 2015).
# Out of some 310,000 compounds screened, about 2,200 (0.71%) showed an effect of 50% or more. The effect is printed as a negative number. Some of the results follow.
# Target: human ether-à-go-go-related gene (hERG) potassium channel (human, UniProt Q12809)
# Experiment: primary screen, population patch clamp on CHO cells stably expressing hERG
# human ether-à-go-go-related gene (hERG) potassium channel, sequence (Q12809 whole entry, looked up): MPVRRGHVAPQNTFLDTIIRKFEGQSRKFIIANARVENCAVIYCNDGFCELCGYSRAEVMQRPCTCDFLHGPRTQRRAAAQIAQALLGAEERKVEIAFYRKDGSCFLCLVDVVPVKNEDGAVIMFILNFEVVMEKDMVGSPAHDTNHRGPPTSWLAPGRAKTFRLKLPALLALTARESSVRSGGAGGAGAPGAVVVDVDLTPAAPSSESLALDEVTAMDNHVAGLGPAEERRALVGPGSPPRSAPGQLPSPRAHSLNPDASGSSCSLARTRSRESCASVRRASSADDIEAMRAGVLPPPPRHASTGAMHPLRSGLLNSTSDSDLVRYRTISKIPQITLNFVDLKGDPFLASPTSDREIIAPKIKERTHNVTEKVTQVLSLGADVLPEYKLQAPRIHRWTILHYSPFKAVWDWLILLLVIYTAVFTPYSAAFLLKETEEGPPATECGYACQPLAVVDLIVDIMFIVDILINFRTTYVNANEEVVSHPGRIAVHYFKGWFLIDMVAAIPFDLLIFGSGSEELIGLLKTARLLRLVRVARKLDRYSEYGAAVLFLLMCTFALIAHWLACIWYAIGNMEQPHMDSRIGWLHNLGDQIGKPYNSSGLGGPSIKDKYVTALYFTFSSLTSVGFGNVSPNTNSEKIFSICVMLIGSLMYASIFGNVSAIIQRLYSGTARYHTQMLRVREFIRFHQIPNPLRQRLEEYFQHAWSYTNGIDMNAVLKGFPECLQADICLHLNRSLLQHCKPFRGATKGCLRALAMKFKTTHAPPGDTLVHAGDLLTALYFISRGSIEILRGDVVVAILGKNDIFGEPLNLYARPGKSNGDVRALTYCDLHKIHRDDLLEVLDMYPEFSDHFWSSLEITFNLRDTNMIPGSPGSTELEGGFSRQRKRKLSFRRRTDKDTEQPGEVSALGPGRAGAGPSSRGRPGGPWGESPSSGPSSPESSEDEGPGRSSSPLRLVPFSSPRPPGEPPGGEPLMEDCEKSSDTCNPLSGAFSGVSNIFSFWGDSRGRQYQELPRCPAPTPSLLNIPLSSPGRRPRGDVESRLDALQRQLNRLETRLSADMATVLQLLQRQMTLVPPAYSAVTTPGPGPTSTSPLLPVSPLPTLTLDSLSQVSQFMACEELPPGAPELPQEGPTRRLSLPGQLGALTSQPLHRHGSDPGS
row,Compound,"hERG current change (%, negative = inhibition) at 1uM"
1,CCC1(C)Cc2c(sc3c2c(=O)n(C)c2nnc(SCc4ccc5c(c4)OCO5)n32)CO1 (stereo not drawn),-5.58%
2,CC1CC(C)CN(C(=O)CN(C)S(=O)(=O)c2ccc3c(c2)c(=O)n(C)c(=O)n3C)C1 (stereo not drawn),10.2%
3,Cc1ccc([N+](=O)[O-])cc1NC(=S)NC(=O)c1cccnc1,11.7%
4,O=C(Cn1[nH]c(=O)c2ccccc2c1=O)OCC(=O)c1ccccc1Cl,5.42%
5,COc1cc(C(=O)Oc2cccc(C=O)c2)cc(OC)c1OC,7.86%
6,Cc1ccc(NC(=O)CC(C)CC2=NS(=O)(=O)c3ccccc3N2)cc1 (stereo not drawn),13.3%
7,COc1ccc(Nc2ncnc3ccc(Br)cc23)c(OC)c1,8.53%
8,COc1ccc(N2CCN(c3oc(Cc4ccccc4)nc3C#N)CC2)cc1,-0.894%
9,CC1(C)NC(=O)N(CC(=O)Nc2cc(C(F)(F)F)cc(C(F)(F)F)c2)C1=O,4.4%
10,CC(=O)Oc1c(C)cc(O)c2ccccc12,6.23%
11,Cc1c(C(=O)OC(C)CCN(C)C)oc2ccccc12.Cl (stereo not drawn),-7.08%
12,O=C(CSc1nc2ccccc2o1)NCc1ccc2c(c1)OCO2,8.19%
13,CCNC(=O)c1cc(S(=O)(=O)N(C)C)c(Cl)cc1Cl,9.56%
14,CC(C)c1ccc(NC(=O)CNC(=O)Cn2cnc3ccccc3c2=O)cc1,2.29%
15,O=C(CCCc1ccccc1)NCCCc1ccccc1,12.2%
16,CCc1cc2ccc(C)cc2nc1SCC(=O)NC1CCCC1,9.55%
17,CCOC(=O)C1CCN(C(=O)COc2ccc(Br)cc2C)CC1,23%
18,CCOc1ccc(NC(=O)CC2C(=O)N(c3ccc(OCC)cc3)C(=S)N2C2CC2)cc1 (stereo not drawn),13.1%
19,COc1ccc(Cc2nc3ccc(C(=O)NCCc4ccncc4)cc3o2)cc1OC,17.1%
20,COc1ccc(OC)c(CCNC(=O)CN2C(=O)CCSc3ccccc32)c1,7.97%
21,Cl.N=c1n(CCCOc2ccccc2Cl)c2ccccc2n1CC(N)=O,6.27%
22,O=c1[nH]c2cc(NCCO)c([N+](=O)[O-])cc2[nH]1,16.1%

row,Compound,"hERG current change (%, negative = inhibition) at 1uM"
1,CCc1cccc(NC(=O)C2CCN(S(=O)(=O)c3c(C)noc3C)CC2)c1,5.57%
2,Cn1cccc1C(=O)NNC(=O)COc1ccc(Br)cc1,11.5%
3,Cc1ccc2cccc(N)c2n1,9.61%
4,CCC1(C)Cc2ccccc2-c2nc3n(c(=O)c21)CCCCC3 (stereo not drawn),-1.54%
5,CCOC(=O)N1CCN(C(=O)CCCOc2ccccc2)CC1,10.3%
6,CCN(C(=O)COC(=O)c1ccccc1Cc1ccccc1)C1CCS(=O)(=O)C1 (stereo not drawn),8.56%
7,CCOC(=O)C(NC(=O)CC)(Nc1nc2c(s1)CCCC2)C(F)(F)F (stereo not drawn),-2.3%
8,COc1cc(NC(=O)C2Cc3ccccc3CN2S(C)(=O)=O)cc(OC)c1 (stereo not drawn),8.4%
9,Cc1cc2c(c(C)nn2-c2ccccc2)c(=O)o1,0.783%
10,COc1ccccc1OCC(=O)Nc1ccccn1,3.45%
11,CCOC(=O)c1c(C(=O)OCC)c(C)n(Cc2cc(OC)c(OC)c(OC)c2)c1C,7.35%
12,CC(=O)c1cccc(NC(=O)CN(C)S(=O)(=O)c2ccc3c(c2)CCC(=O)N3)c1,8.16%
13,CCOC(=O)c1c(C)[nH]c(C)c1S(=O)(=O)N(C)CC(=O)Nc1ccccc1C,22.4%
14,Cc1ccc(-n2cccn2)c([C@@H]2C[C@H]3CN(C)C(=O)[C@]34CCCN24)c1,-15%
15,CCCCC(=O)Nc1ccc2oc(-c3cccnc3)nc2c1,9.98%
16,O=C(COC(=O)c1ccc(S(=O)(=O)N2CCCC2)cc1)Nc1cccc(F)c1,12.8%
17,CCOCCCn1c(=S)[nH]c2cc3c(cc2c1=O)OCO3,11.2%
18,CC(NC(=O)COC(=O)CNS(=O)(=O)/C=C/c1ccccc1)c1ccccc1 (stereo not drawn),11.2%
19,CCCCC(NC(=O)c1ccc(Cl)cc1)C(=O)O (stereo not drawn),9.29%
20,O=C(CCCN1C(=O)CSc2ncccc21)N1CCN(Cc2ccccc2)CC1,14.1%
21,O=C(Nc1ccccc1)C1=C[C@H](c2ccc(C(F)(F)F)cc2)C[C@H](OCc2ccc(CO)cc2)O1,5.76%
22,Cc1cc(C)c(C(N)=O)c(NC(=O)Nc2ccccc2Cl)n1,0.96%

row,Compound,"hERG current change (%, negative = inhibition) at 1uM"
1,Cc1ccc(C)c(S(=O)(=O)NC(C)C(=O)Nc2ccc(-c3nc4ccccc4s3)cc2)c1 (stereo not drawn),4.16%
2,Cn1c(N)nc2ccccc2c1=O,4.59%
3,COc1cc([N+](=O)[O-])ccc1NC(=S)NNC(=O)CCC(=O)Nc1ccccc1Cl,0.8%
4,CN(C)c1ccc(-c2nc3ccccc3n2C)cc1,-24.7%
5,COc1ccc(-c2[nH]nc3c2C(c2ccc(OC(=O)N4CCOCC4)cc2)C(C#N)=C(N)O3)cc1 (stereo not drawn),9.35%
6,CC(C(=O)NC1CCCC1)N1CCN(S(=O)(=O)c2ccc(C(C)(C)C)cc2)CC1 (stereo not drawn),-2.73%
7,Cc1c(Cl)ccc2c1NC(=O)[C@]21N[C@@H](CCC(N)=O)[C@H]2C(=O)N(c3ccc(F)cc3)C(=O)[C@H]21,8.29%
8,COc1ccc(NC(=O)Nc2ccc(C)cc2Br)c(OC)c1,10.1%
9,Clc1ccc(-c2nnc3cccc(Cl)n23)c(Cl)c1,6.15%
10,COc1ccc(-c2nnc(SCC(=O)NCC3CCCO3)o2)cc1 (stereo not drawn),22.4%
11,O=C(NC1CCCCC1)C(c1cccs1)N(Cc1cccs1)C(=O)c1ccco1 (stereo not drawn),10.7%
12,O=C(NC(=S)Nc1ccc(S(=O)(=O)Nc2ccccc2)cc1)C1CC1,7.24%
13,Cn1c(-c2cc3ccc(OC(=O)C(C)(C)C)cc3oc2=O)nc2ccccc21,4.98%
14,CCCCOc1nc(N2CCOCC2)nc(C)c1[N+](=O)[O-],5.2%
15,COc1cccc(N(CC(=O)N2CCN(C)CC2)S(=O)(=O)c2ccc(C)cc2)c1,4.39%
16,CCOC(=O)N1CCN(C(=O)/C=C/c2ccc3c(c2)OCO3)CC1,4.33%
17,CC(=O)c1ccc(N2CCN(C(=O)C3CCCN(S(=O)(=O)c4c(C)[nH]c(=O)[nH]c4=O)C3)CC2)cc1 (stereo not drawn),19%
18,COc1ccc(S(=O)(=O)N2CCN(c3ccccc3OC)CC2)cc1OC,7.66%
19,Cc1ccccc1S(=O)(=O)Nc1nc2ccccc2nc1N1CCc2ccccc2C1,14.3%
20,CCOC(=O)N1CCN(S(=O)(=O)c2cccc3ccc(C)nc23)CC1,0.132%
21,O=C(Nc1cccc(S(=O)(=O)NC2=NCCCCC2)c1)c1cc(-c2ccccc2Cl)nc2ccccc12,10.2%
22,CCc1ccc([C@@H]2CC=C(C(=O)O)CN2S(=O)(=O)c2ccc(C)cc2)cc1,13.6%

row,Compound,"hERG current change (%, negative = inhibition) at 1uM"
1,CC(/C=C\c1cccnc1)=C/C(=O)O,3.18%
2,CCOc1ccc(NC(=O)CN2C(=O)CSc3ccc(S(=O)(=O)N4CCOCC4)cc32)cc1,12.4%
3,CN1CCC(=NNC(=O)c2ccc(N(Cc3ccccc3Cl)S(C)(=O)=O)cc2)CC1,6.54%
4,C=CCN1C(=O)C(CC(=O)NCC)SC1=Nc1cc(Cl)ccc1Cl (stereo not drawn),4.18%
5,CCC(C)c1ccccc1NC(=O)COC(=O)c1ccc(C)c(NC(=O)c2ccco2)c1 (stereo not drawn),-3.56%
6,OCCC1CN(Cc2ccc3nsnc3c2)CCN1CCc1ccccc1 (stereo not drawn),-73.7%
7,Cc1ccc(/C=N/N2CCN(c3ccccn3)CC2)o1,15%
8,c1ccc2nc3c(nc2c1)OCC1CCCCN31 (stereo not drawn),7.92%
9,CC(C)CCNc1nc(N)c([N+](=O)[O-])c(N2CCCCCC2)n1,14%
10,CCOCCCNC(=O)C(NC(=O)CNC(C)=O)c1ccc(C)cc1 (stereo not drawn),-3.41%
11,CCOC(=O)c1cc(C(C)(C)C)oc1CNC(=O)c1c(C)oc2c1CCCC2,5.37%
12,Cc1ccc2[nH]c(-c3ccccc3)c(CN(C)C)c(=O)c2c1,-4.19%
13,CC(=O)Nc1ccc(C(=O)OCC(=O)Nc2ccc([N+](=O)[O-])cc2C(F)(F)F)cc1,9.58%
14,Cc1cc(C(=O)COC(=O)c2ccc(O)cc2)c(C)n1CC1COc2ccccc2O1 (stereo not drawn),0.163%
15,COc1ccccc1NC(=S)N1CCC(c2nc3cc(C)c(C)cc3[nH]2)CC1,-3.39%
16,CN1C(=O)C(=O)N(c2cccc(C(F)(F)F)c2)C1=O,13.2%
17,COc1cc(/C=N/NC(=O)C(=O)NCc2cccnc2)cc(OC)c1OC,11.9%
18,CCn1cc(S(=O)(=O)c2ccccc2)c(=O)c2cc(F)c(N3CCN(C)CC3)cc21,12.4%
19,COc1ccc(OC)c(NC(=O)c2cnc3n(c2=O)CCS3)c1,7.6%
20,N#Cc1c(NC(=O)CSc2n[nH]c(Cc3ccccc3)n2)oc(-c2ccccc2)c1-c1ccccc1,7.79%
21,O=C(NCCc1ccc(Cl)cc1)C1CCCN(c2ncnc3c2nc2n3CCCCC2)C1 (stereo not drawn),-8.07%
